Reference: PubChem BioAssay (Tox21)
Values joined by “and” are separate entries in the source; they are usually repeats but may differ in a detail not shown here. Identical values can stand only once. Inconclusive means that the source gave no clear call. Such entries were picked first, then a sample of the others. For part of these data: A potency beside an inconclusive call is a rough fit, not a confirmed value. Active and inactive are the calls of the source. Calls come from the whole dose curve; as a rule, active = well fitted curve in the direction sought with a large enough effect in the repeat runs; inconclusive = weak or mixed curves; inactive = no such curve, though single readings can be large; an effect the other way counts as inactive or inconclusive.

Tests used:
[1] = Human pregnane X receptor (PXR) small molecule agonists, qHTS cell viability counter screen (AID 1346977); conditions: PXR-Luc HepG2 viability, CellTiter-Fluor, 24 h; series mostly up to 92.4 µM; note: potency is the fitted concentration of half-maximal effect; nearly all actives have a fitted effect of over 50% in size
Method in brief: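 PXR-Luc HepG2 cells (2,000/well, 5% charcoal-stripped FBS) preincubated 5 hr, then exposed to compounds 24 hr at 37 C. Viability read in the same wells by CellTiter-Fluor fluorescence, reagent added at 23 hr, 1 hr incubation.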

[2] = Caspase-3/7 induction in HepG2 cells by small molecules, qHTS assay (AID 1346978); conditions: HepG2 caspase-3/7 activation, Caspase-Glo luminescence, 17 h; series mostly up to 92.4 µM; note: potency is the fitted concentration of half-maximal effect; nearly all actives have a fitted effect of over 15% in size
Method in brief: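 Wild-type HepG2 cells (2,000/well) were settled 5 h at 37 C, 5% CO2, then exposed to compounds in DMSO for 17 h. Caspase-3/7 activity was read by luminescence 30 min after adding Caspase-Glo 3/7 reagent at room temperature.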

[3] = Caspase-3/7 induction in HepG2 cells by small molecules, qHTS cell viability counter screen (AID 1346981); conditions: CellTiter-Fluor fluorescence, 17 h; series mostly up to 92.4 µM; note: potency is the fitted concentration of half-maximal effect; nearly all actives have a fitted effect of over 30% in size
Method in brief: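 The parent HepG2 line is plated at 2,000 cells per well and rested 5 hr before compound pinning from DMSO stocks. Following a 16-hr treatment at 37 C, a fluorogenic live-cell substrate (CellTiter-Fluor) reports viability after 1 hr.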

[4] = molecular target: Nuclear receptor subfamily 1 group I member 2 (Rattus norvegicus) (UniProt Q9R1A7); experiment: Rat pregnane X receptor (rPXR) activation by small molecules, qHTS assay (AID 1346983); conditions: rPXR luciferase reporter cells, One-Glo luminescence, 24 h; max activation: hits give high values; note: potency is the fitted concentration of half-maximal effect; nearly all actives have a fitted effect of over 20% in size
Method in brief: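 Cell-based rPXR luciferase reporter assay, 2,000 cells per well, rested 5hr at 37 C before compound addition in DMSO, then 24 hr at 37 C. One-Glo reagent was added and luminescence read after 30 min at room temperature.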

[5] = molecular target: Cytochrome P450 2C19 (Homo sapiens) (UniProt P33261); experiment: Cytochrome P450 Family 2 Subfamily C Member 19 (CYP2C19) small molecule antagonists: luciferase reporter qHTS assay (AID 1671197); conditions: P450-Glo CYP2C19 enzyme, luciferin luminescence, 1 h; series mostly up to 115 µM; note: potency is the fitted concentration of half-maximal effect; nearly all actives have a fitted effect of over 65% in size
Method in brief: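 Luminescent readout of CYP2C19 activity: luciferin product detected 20 min after adding detection reagent. Before that, compound and enzyme-substrate mix preincubated 10 min at room temperature; NADPH-regenerating system started a 1 h, 37C reaction. Ketoconazole as positive control.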

[6] = molecular target: Cytochrome P450 1A2 (Homo sapiens) (UniProt P05177); experiment: Cytochrome P450 Family 1 Subfamily A Member 2 (CYP1A2) small molecule antagonists: luciferase reporter qHTS assay (AID 1671199); conditions: P450-Glo CYP1A2 enzyme, luciferin luminescence, 1 h; series mostly up to 115 µM; note: nearly all actives have a fitted effect of over 50% in size
Method in brief: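 Quantitative high-throughput format using the P450-Glo CYP1A2 system. Reaction initiated by NADPH regeneration solution, 1 h at room temperature, then stopped with detection reagent; luminescence measured 20 min later.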

[7] = molecular target: Voltage-gated inwardly rectifying potassium channel KCNH2 (Homo sapiens) (UniProt Q12809); experiment: Human Ether-a-go-go-Related Gene (hERG) channel small molecule antagonists: fluorescence cell-based qHTS assay (AID 1671200); conditions: hERG-U2OS cells, FluxOR thallium flux fluorescence; series mostly up to 76.8 µM; note: nearly all actives have a fitted effect of over 50% in size; note: potency is the fitted concentration of half-maximal effect
Method in brief: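 hERG-U2OS cells plated overnight at 37 C, loaded with FluxOR II dye 1 h at RT in dark; after 10 min, thallium stimulus added. Fluorescence (480/540 nm) read kinetically for 2 min at 1 s intervals.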

[8] = Caspase-3/7 induction in CHO-K1 cells by small molecules, qHTS cell viability counter screen (AID 1346979); conditions: CellTiter-Fluor fluorescence, 17 h; series mostly up to 92.4 µM; note: potency is the fitted concentration of half-maximal effect; nearly all actives have a fitted effect of over 35% in size
Method in brief: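 Wild-type CHO-K1 cells (1,500/well) treated with compound after 5 h plating; after 16 h at 37C, viability read as CellTiter-Fluor fluorescence following 1 h reagent incubation, in the same wells as the caspase read.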

[9] = Caspase-3/7 induction in CHO-K1 cells by small molecules, qHTS assay (AID 1346980); conditions: CHO-K1 caspase-3/7 induction, Caspase-Glo luminescence, 17 h; series mostly up to 92.4 µM; note: potency is the fitted concentration of half-maximal effect; nearly all actives have a fitted effect of over 15% in size
Method in brief: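 Wild-type cells were seeded at 1,500 per well and settled 5 hr at 37 C, 5% CO2, then exposed to DMSO-dissolved compounds for 17 hr. Caspase-Glo 3/7 reagent was added, and luminescence was read after 30min at room temperature.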
Tags give direction and shape of the fitted curve.

Chain of UniProt Q12809 (Q12809 whole entry, looked up): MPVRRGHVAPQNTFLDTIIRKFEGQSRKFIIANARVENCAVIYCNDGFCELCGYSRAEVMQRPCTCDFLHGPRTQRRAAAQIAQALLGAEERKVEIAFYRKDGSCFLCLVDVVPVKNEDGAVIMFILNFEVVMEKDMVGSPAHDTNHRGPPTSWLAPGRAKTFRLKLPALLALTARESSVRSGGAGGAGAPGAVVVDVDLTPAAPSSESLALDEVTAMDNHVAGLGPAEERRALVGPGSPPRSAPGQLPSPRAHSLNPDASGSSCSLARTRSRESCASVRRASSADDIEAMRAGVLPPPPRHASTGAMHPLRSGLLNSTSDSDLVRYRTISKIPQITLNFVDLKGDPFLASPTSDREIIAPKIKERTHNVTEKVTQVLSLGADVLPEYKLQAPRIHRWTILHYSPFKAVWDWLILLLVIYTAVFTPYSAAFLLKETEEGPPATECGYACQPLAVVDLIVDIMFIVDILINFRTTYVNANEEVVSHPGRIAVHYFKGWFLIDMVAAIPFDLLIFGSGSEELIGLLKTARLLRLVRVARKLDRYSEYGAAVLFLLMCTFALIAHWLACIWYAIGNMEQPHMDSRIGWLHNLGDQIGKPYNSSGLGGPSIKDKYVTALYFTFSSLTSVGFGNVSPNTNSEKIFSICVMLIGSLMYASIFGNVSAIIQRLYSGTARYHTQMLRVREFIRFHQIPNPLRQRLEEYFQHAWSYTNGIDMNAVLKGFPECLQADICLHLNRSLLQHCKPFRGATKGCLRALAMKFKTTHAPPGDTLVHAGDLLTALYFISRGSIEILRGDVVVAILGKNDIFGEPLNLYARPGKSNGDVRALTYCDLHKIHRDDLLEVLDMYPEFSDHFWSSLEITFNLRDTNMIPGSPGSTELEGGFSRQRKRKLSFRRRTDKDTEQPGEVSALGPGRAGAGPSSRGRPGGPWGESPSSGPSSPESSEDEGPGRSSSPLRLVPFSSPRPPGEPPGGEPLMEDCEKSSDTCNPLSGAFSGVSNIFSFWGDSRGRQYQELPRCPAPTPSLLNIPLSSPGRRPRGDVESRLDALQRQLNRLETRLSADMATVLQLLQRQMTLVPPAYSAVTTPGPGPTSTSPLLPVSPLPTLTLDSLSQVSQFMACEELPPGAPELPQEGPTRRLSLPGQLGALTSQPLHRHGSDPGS
Chain of UniProt P05177 (P05177 whole entry, looked up): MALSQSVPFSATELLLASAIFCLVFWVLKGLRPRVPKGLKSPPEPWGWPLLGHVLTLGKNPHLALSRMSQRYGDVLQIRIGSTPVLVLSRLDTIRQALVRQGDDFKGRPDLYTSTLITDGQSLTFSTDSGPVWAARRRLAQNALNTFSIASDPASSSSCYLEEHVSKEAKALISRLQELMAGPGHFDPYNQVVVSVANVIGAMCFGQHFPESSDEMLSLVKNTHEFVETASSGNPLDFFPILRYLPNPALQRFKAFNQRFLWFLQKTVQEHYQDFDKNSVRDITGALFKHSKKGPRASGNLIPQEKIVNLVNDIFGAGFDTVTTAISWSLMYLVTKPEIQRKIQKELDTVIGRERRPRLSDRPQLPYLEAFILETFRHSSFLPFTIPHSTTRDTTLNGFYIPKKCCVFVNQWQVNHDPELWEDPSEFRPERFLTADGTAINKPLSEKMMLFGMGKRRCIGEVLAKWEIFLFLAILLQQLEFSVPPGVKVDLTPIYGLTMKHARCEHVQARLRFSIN
Chain of UniProt Q9R1A7 (Q9R1A7 whole entry, looked up): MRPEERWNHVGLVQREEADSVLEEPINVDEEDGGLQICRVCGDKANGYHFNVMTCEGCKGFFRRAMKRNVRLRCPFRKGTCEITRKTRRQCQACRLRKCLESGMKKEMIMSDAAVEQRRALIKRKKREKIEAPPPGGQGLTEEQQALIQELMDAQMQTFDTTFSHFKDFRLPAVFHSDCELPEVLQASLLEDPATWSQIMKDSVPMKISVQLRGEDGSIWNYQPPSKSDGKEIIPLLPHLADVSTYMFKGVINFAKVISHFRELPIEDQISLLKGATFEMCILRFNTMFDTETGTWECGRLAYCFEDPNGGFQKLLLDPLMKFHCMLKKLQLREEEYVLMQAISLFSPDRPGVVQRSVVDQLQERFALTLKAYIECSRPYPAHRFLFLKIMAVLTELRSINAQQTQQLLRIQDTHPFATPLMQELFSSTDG
Chain of UniProt P33261 (P33261 whole entry, looked up): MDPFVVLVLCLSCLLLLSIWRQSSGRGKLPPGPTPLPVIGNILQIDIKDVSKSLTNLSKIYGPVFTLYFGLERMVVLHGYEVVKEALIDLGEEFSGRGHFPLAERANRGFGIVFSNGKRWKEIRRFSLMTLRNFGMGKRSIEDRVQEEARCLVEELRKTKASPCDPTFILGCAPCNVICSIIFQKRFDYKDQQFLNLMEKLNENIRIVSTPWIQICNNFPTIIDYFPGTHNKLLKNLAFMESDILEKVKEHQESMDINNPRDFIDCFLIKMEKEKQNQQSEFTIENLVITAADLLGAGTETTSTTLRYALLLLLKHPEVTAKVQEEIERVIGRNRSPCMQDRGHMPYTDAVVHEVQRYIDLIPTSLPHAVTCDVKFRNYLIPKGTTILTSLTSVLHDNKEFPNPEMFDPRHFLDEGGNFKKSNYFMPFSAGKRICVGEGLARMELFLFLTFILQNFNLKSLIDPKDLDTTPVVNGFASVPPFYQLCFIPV

Compound	Potency [1]	Potency [2]	Potency [3]	Potency [4]	Potency [5]	Potency [6]	Potency [7]	Potency [8]	Potency [9]
Cc1c(O)cccc1C(=O)N[C@@H](CSc1ccccc1)[C@H](O)CN1C[C@H]2CCCC[C@H]2C[C@H]1C(=O)NC(C)(C)C	active: 16.8 µM and active: 13.3 µM	active: 66.8 µM	active: 11.9 µM and active: 13.3 µM	inconclusive: 35.5 µM [activator, single point]	inconclusive: 43.6 µM [inhibitor, single point]	inactive	inactive		
OC[C@H]1O[C@@H]2O[C@H]3[C@H](O)[C@@H](O)[C@@H](O[C@H]4[C@H](O)[C@@H](O)[C@@H](O[C@H]5[C@H](O)[C@@H](O)[C@@H](O[C@H]6[C@H](O)[C@@H](O)[C@@H](O[C@H]7[C@H](O)[C@@H](O)[C@@H](O[C@H]1[C@H](O)[C@H]2O)O[C@@H]7CO)O[C@@H]6CO)O[C@@H]5CO)O[C@@H]4CO)O[C@@H]3CO	inconclusive: 32.4 µM [cytotoxic, single point]							inconclusive: 32.4 µM [cytotoxic, single point]	
CC(C)c1ccc2c(c1)CC[C@H]1[C@](C)(CN)CCC[C@]21C	inconclusive: 68.6 µM [cytotoxic, single point]	inconclusive: 68.6 µM [activator, single point]	inconclusive: 68.6 µM [cytotoxic]				active: 13.8 µM	inconclusive: 68.6 µM [cytotoxic, single point]	inconclusive: 68.6 µM [activator, single point]
